Where a name gives a salt, the structure may show the parent alone. ± gives the standard deviation of the averaged measurements. Over roughly 1,900 compounds, “normalised cell viability (NPI; 0 = phenylarsine oxide control, 1 = DMSO control)” has its median near 1; the lowest 2% begin near 0.039. The list shows a part of the results.
Tested on: NCI-H1944
Assay: normalised cell viability (NPI; 0 = phenylarsine oxide control, 1 = DMSO control) (fraction of DMSO control); NCI-H1944 is a non-small cell lung cancer line; higher = more viable cells (less compound toxicity)
Details: 6 days
[1] = glucocorticoid arm: hydrocortisone 2.75 uM co-treatment, compound 1 µM
[2] = glucocorticoid arm: hydrocortisone 2.75 uM co-treatment, compound 5 µM
[3] = glucocorticoid arm: hydrocortisone 2.75 uM pre-treated 2 days and continued, compound 1 µM
[4] = glucocorticoid arm: hydrocortisone 2.75 uM pre-treated 2 days and continued, compound 5 µM
[5] = glucocorticoid arm: vehicle, compound 1 µM
[6] = glucocorticoid arm: vehicle, compound 5 µM
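Note: CTB read-out in 384-well plates, mean of triplicate wells, normalised per plate against 1 µM phenylarsine oxide and 0.1% DMSO, compounds added 24 h after seeding.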

| Compound | normalised cell viability [1] | normalised cell viability [2] | normalised cell viability [3] | normalised cell viability [4] | normalised cell viability [5] | normalised cell viability [6] |
| --- | --- | --- | --- | --- | --- | --- |
| COc1cc(F)c(F)c(Nc2ccc(I)cc2F)c1NS(=O)(=O)C1(C[C@H](O)CO)CC1 [Refametinib (RDEA119, Bay 86-9766)] | 0.602 ± 0.015 | 0.551 ± 0.016 | 0.665 ± 0.015 | 0.717 ± 0.043 | 0.374 ± 0.0085 | 0.213 ± 0.029 |
| CCCCCN(CCCCC)C(=O)C(CCC(=O)O)NC(=O)c1ccc(Cl)c(Cl)c1 (configuration not stated) [Lorglumide sodium] | 1.007 ± 0.0058 | 1.03 ± 0.011 | 1 ± 0.015 | 1.06 ± 0.1 | 0.991 ± 0.0036 | 0.993 ± 0.0076 |
| NC1CC1c1ccc(-c2cccc(O)c2)cc1 (configuration not stated) | 0.973 ± 0.014 | 0.938 ± 0.02 | 0.962 ± 0.021 | 0.941 ± 0.03 | 1.01 ± 0.015 | 0.998 ± 0.013 |
| CS(=O)(=O)N1CCN(Cc2cc3nc(-c4cccc5[nH]ncc45)nc(N4CCOCC4)c3s2)CC1 | 1.02 ± 0.022 | 1.05 ± 0.015 | 1.02 ± 0.011 | 1.05 ± 0.015 | 0.998 ± 0.012 | 1.005 ± 0.0087 |
| NCCSSCCN [Cystamine dihydrochloride] | 0.993 ± 0.02 | 1.01 ± 0.013 | 0.9983 ± 0.0021 | 0.9965 ± 0.005 | 0.985 ± 0.0062 | 1.001 ± 0.0078 |
| Nc1nc2c(ncn2COCCO)c(=O)[nH]1 [Acyclovir] | 0.9907 ± 0.0085 | 0.996 ± 0.014 | 0.814 ± 0.3 | 0.9845 ± 0.005 | 0.98 ± 0.01 | 0.996 ± 0.001 |
| CCCCCCCCCCCCCCCCCCOCC(COP(=O)([O-])OCC[N+](C)(C)C)OC (configuration not stated) | 1.006 ± 0.0063 | 0.993 ± 0.015 | 0.9897 ± 0.0011 | 0.989 ± 0.028 | 0.9853 ± 0.0049 | 0.9957 ± 0.0059 |
| CN1[C@@H]2CC[C@H]1CC(OC(=O)c1c[nH]c3ccccc13)C2 (some centres not stated) [3-Tropanyl-indole-3-carboxylate hydrochloride] | 1.01 ± 0.011 | 0.999 ± 0.011 | 1.02 ± 0.017 | 1.02 ± 0.015 | 0.9923 ± 0.0021 | 0.9917 ± 0.004 |
| CCCC1O[C@@H]2C[C@H]3[C@@H]4CCC5=CC(=O)C=C[C@]5(C)[C@H]4[C@@H](O)C[C@]3(C)[C@]2(C(=O)CO)O1 (some centres not stated) [Budesonide] | 1.003 ± 0.0061 | 0.9 ± 0.013 | 1.006 ± 0.0063 | 0.978 ± 0.023 | 0.785 ± 0.039 | 0.649 ± 0.045 |
| NCCC1CCCC(CCN)N1 (configuration not stated) [MDL 26,630 trihydrochloride] | 0.9937 ± 0.0075 | 0.981 ± 0.021 | 0.9927 ± 0.0075 | 1.04 ± 0.11 | 0.9923 ± 0.0042 | 1 ± 0.011 |
| COC(=O)c1c(C)[nH]c(C)c1C(=O)c1ccccc1Cc1ccccc1 | 1.01 ± 0.016 | 1.027 ± 0.0058 | 1.01 ± 0.011 | 1.01 ± 0.011 | 1.01 | 1.01 ± 0.014 |
| COc1cc(C(O)CO)ccc1OS(=O)(=O)O (configuration not stated) [MHPG sulfate potassium] | 1.006 ± 0.0063 | 1.01 ± 0.014 | 1.01 | 1.01 ± 0.011 | 1.007 ± 0.0058 | 1.01 |
| Nc1nc(N)c2nc(CNc3ccc(C(=O)N[C@@H](CCC(=O)O)C(=O)O)cc3)cnc2n1 [Aminopterin] | 0.983 ± 0.0095 | 0.764 ± 0.031 | 0.981 ± 0.012 | 0.985 ± 0.013 | 0.984 ± 0.0095 | 0.514 ± 0.016 |
| CCCCN(Cc1ccc(C(=O)NO)cc1)C(=O)Nc1ccccc1 [Nexturastat A] | 0.949 ± 0.017 | 0.9863 ± 0.0097 | 0.97 ± 0.02 | 0.963 ± 0.027 | 1.001 ± 0.009 | 0.967 ± 0.014 |
| COC(=O)N[C@H](C(=O)N1CCC[C@H]1c1ncc(-c2ccc(-c3ccc(-c4cnc([C@@H]5CCCN5C(=O)[C@@H](NC(=O)OC)C(C)C)[nH]4)cc3)cc2)[nH]1)C(C)C | 1.03 ± 0.015 | 1.073 ± 0.0058 | 1.01 ± 0.015 | 1.08 ± 0.021 | 1.03 ± 0.029 | 0.972 ± 0.011 |
| O=C1O/C(=C/Br)CCC1c1cccc2ccccc12 (configuration not stated) [Bromoenol lactone] | 1.02 | 1.02 ± 0.026 | 1.01 ± 0.01 | 1.02 | 0.998 ± 0.013 | 1.01 |

| Compound | normalised cell viability [1] | normalised cell viability [2] | normalised cell viability [3] | normalised cell viability [4] | normalised cell viability [5] | normalised cell viability [6] |
| --- | --- | --- | --- | --- | --- | --- |
| CNC(=O)c1ccccc1Nc1nc(Nc2ccc(N3CCOCC3)cc2OC)ncc1Cl | 0.439 ± 0.055 | 0.291 ± 0.0087 | 0.548 ± 0.016 | 0.414 ± 0.0046 | 0.489 ± 0.038 | 0.154 ± 0.017 |
| CC1=C(C(=O)Nc2cc3cn[nH]c3cc2F)C(c2ccc(C(F)(F)F)cc2)CC(=O)N1 (configuration not stated) | 0.9897 ± 0.0067 | 0.9623 ± 0.009 | 0.966 ± 0.018 | 0.99 ± 0.019 | 0.9947 ± 0.0021 | 1 ± 0.0087 |
| CC[C@H](NC(=O)c1c(C)c(-c2ccccc2)nc2ccccc12)c1ccccc1 | 1.007 ± 0.0058 | 1.023 ± 0.0058 | 1.005 ± 0.0081 | 1.004 ± 0.0085 | 0.99 ± 0.0027 | 0.987 ± 0.012 |
| N/C(=N\C(=O)c1nc(Cl)c(N)nc1N)NCc1ccc(Cl)c(Cl)c1 [3',4'-Dichlorobenzamil hydrochloride] | 0.99 ± 0.0089 | 0.0646 ± 0.03 | 0.998 ± 0.013 | 0.862 ± 0.014 | 0.98667 ± 0.00058 | 0.0118 ± 0.0064 |
| NCC(O)(CS(=O)(=O)O)c1ccc(Cl)cc1 (configuration not stated) [2-Hydroxysaclofen] | 0.9957 ± 0.004 | 1.01 ± 0.014 | 0.994 ± 0.011 | 0.995 ± 0.022 | 0.992 ± 0.011 | 1.01 ± 0.013 |
| OCCN1CCN(CCCN2c3ccccc3C=Cc3ccccc32)CC1 [Opipramol dihydrochloride] | 0.97 ± 0.023 | 0.95 ± 0.019 | 0.98 ± 0.019 | 0.995 ± 0.0071 | 1.01 ± 0.011 | 1.01 ± 0.011 |
| O=C(O)C=C1CCCc2ccccc2C1O (configuration not stated) | 0.987 ± 0.012 | 0.948 ± 0.026 | 0.987 ± 0.02 | 0.994 ± 0.044 | 0.983 ± 0.0069 | 0.987 ± 0.01 |
| CC(=O)CCCCn1c(=O)c2c(ncn2C)n(C)c1=O [Pentoxifylline] | 0.999 ± 0.011 | 1.01 ± 0.031 | 1.01 | 0.855 ± 0.26 | 0.995 ± 0.002 | 0.997 ± 0.012 |
| O=c1c(-c2ccc(O)cc2)coc2cc(O)ccc12 [Daidzein] | 0.99 ± 0.018 | 0.995 ± 0.014 | 1 ± 0.014 | 0.9963 ± 0.0011 | 0.98333 ± 0.00058 | 0.9877 ± 0.0042 |
| CC(C)NC[C@H](O)COc1cccc2ccccc12 [(S)-(-)-Propranolol hydrochloride] | 1.003 ± 0.0058 | 0.989 ± 0.007 | 1.02 ± 0.023 | 1.04 ± 0.021 | 0.9957 ± 0.0025 | 0.992 ± 0.0072 |
| C[C@H]1O[C@@H](n2cc(F)c(=O)[nH]c2=O)[C@H](O)[C@@H]1O [5-fluoro-5'-deoxyuridine] | 0.9947 ± 0.0092 | 0.719 ± 0.019 | 0.988 ± 0.013 | 0.998 ± 0.02 | 0.9893 ± 0.0065 | 0.728 ± 0.017 |
| CC(C)(C)c1nc(-c2cccc(NS(=O)(=O)c3c(F)cccc3F)c2F)c(-c2ccnc(N)n2)s1 [Dabrafenib Mesylate] | 1.09 | 0.629 ± 0.036 | 1.073 ± 0.0058 | 0.983 ± 0.018 | 0.97 ± 0.0087 | 0.157 ± 0.0076 |
| CC(C)(C)c1nc(-c2cccc(NS(=O)(=O)c3c(F)cccc3F)c2F)c(-c2ccnc(N)n2)s1 | 1.09 ± 0.011 | 1.1 ± 0.035 | 1.09 ± 0.01 | 1.1 ± 0.023 | 1.017 ± 0.0058 | 0.9963 ± 0.0063 |
| Clc1ccc(C(c2ccc(Cl)cc2)[n+]2ccn(CC(OCc3ccc(Cl)cc3Cl)c3ccc(Cl)cc3Cl)c2)cc1 (configuration not stated) [Calmidazolium chloride] | 0.974 ± 0.035 | 0.00138 ± 0.00076 | 0.993 ± 0.012 | -0.000224 ± 0.0015 | 1.002 ± 0.0072 | 0.00119 ± 0.00017 |
| COC(=O)c1c(-c2cc(OC)c(OC)c(OC)c2)c2ccc(OCc3ccccn3)cc2c(=O)n1-c1ccc(N)cc1 | 1.01 ± 0.01 | 1.04 ± 0.015 | 1.02 ± 0.015 | 1.027 ± 0.0058 | 1.027 ± 0.0058 | 1.017 ± 0.0058 |
| CS(=O)(=O)c1ccc(-c2cnc(N)c(C(=O)Nc3ccccc3)n2)cc1 | 1.02 ± 0.017 | 1.03 ± 0.026 | 0.9917 ± 0.006 | 1.01 ± 0.03 | 0.99 ± 0.044 | 0.965 ± 0.0098 |
